# Data reported in the BET-seq Pho4 binding data (Le et al. 2018).
# The other results are listed elsewhere or left out. The energies were worked out here from pooled read counts, against the library average; single values are noisy.
# Target: T1, Pho4 (S. cerevisiae) (UniProt P07270)
# T1 sequence: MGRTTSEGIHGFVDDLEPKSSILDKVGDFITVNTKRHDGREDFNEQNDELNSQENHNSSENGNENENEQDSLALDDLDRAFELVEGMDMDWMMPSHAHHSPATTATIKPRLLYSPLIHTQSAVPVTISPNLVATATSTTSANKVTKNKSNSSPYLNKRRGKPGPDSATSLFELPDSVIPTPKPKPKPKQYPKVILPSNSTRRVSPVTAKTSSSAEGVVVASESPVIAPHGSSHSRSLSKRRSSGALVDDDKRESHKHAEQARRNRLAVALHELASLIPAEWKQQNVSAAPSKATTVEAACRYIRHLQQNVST
# Assay: relative binding free energy (BET-seq); higher = weaker binding
# Details: reference: library average
row,Sequence,relative binding free energy [kcal/mol]
1,TTTGCCACGTGCGGTT,-0.13
2,TATATCACGTGCTGAG,0.14
3,TTTAGCACGTGGTACG,-0.21
4,AATGGCACGTGAACGT,0.06
5,TGCGTCACGTGGATCG,0.06
6,GTCAGCACGTGGTAGT,-0.01
7,GTGTTCACGTGGCATA,0.07
8,TGCGCCACGTGGATGG,-0.12
9,ATCAACACGTGGGGTG,-0.26
10,TGTCTCACGTGTCGGT,0.23
11,GTGGACACGTGTTTGA,-0.07
12,TGCCTCACGTGTGTGG,0.28
13,GTTGACACGTGGGGAG,-0.02
14,GGTGACACGTGTGCAG,0.13
15,ATTTGCACGTGTTAGG,0.08
16,GTGAGCACGTGTATGT,-0.04
17,GGGCGCACGTGTGAGT,0.01
18,TTTGTCACGTGTATGA,0.13
19,GGTGCCACGTGTTGAG,-0.01
20,CGTGTCACGTGATTCG,0.29
21,TGTTTCACGTGAATGA,0.28
22,TGAAGCACGTGGGGGG,-0.21
23,CAGGTCACGTGTGATG,0.24

row,Sequence,relative binding free energy [kcal/mol]
1,TCTATCACGTGTGAGG,0.16
2,GAGGTCACGTGTGAGT,0.23
3,GTAGTCACGTGGAGGT,0.22
4,TATAGCACGTGTATAG,0.02
5,CTTCGCACGTGAGAGG,0.24
6,GGCATCACGTGTGTGT,0.21
7,AGCTCCACGTGTTGTG,0.05
8,TGCTGCACGTGGTAAG,-0.12
9,GTTGGCACGTGAAAGA,0.24
10,GGGGCCACGTGGTAGA,-0.2
11,AGTTTCACGTGGGACG,0.29
12,CGTTTCACGTGGGCAT,0.23
13,ATTAACACGTGATAGG,0.21
14,TAGGCCACGTGGTGAA,-0.12
15,GCGTGCACGTGGCGGG,-0.09
16,TAATGCACGTGTTGAC,0.1
17,TATGGCACGTGGAGTC,-0.15
18,ACGGACACGTGAGGTT,0.3
19,AAGGACACGTGGGAGT,-0.09
20,ATAGTCACGTGAGTGA,0.27
21,TAAAGCACGTGTGGGA,0.07
22,GAGGCCACGTGTAAGT,0.19
23,TATTCCACGTGGTTTA,0.06

row,Sequence,relative binding free energy [kcal/mol]
1,TAAAGCACGTGTCGGT,-0.02
2,TGTTACACGTGCGAGA,0.24
3,TAGGACACGTGTTAAT,-0.03
4,GAGAGCACGTGATGGG,0.03
5,GAGGGCACGTGAGGCG,0.21
6,TAGAGCACGTGGGAAA,-0.06
7,AGGGGCACGTGGTGAG,-0.21
8,GGGTCCACGTGTTTAT,0
9,GGAGGCACGTGCTTAA,0.04
10,TCGAACACGTGAGGTT,0.22
11,ATCGGCACGTGTAGTT,0.06
12,ATATACACGTGGTTTC,0.06
13,GAGGGCACGTGAACGG,0.12
14,CTAGTCACGTGGAGTT,-0.08
15,AGTGTCACGTGTGGCG,0.11
16,CGCTGCACGTGGTGGG,-0.16
17,GGAGGCACGTGATTAA,0.04
18,TGAGTCACGTGCCGGG,0.02
19,TAGTGCACGTGACAGG,0.16
20,AGTGGCACGTGTATAT,-0.01
21,TTTAGCACGTGTTTTG,-0.1
22,GTGGGCACGTGGACAG,-0.14
23,AAGTACACGTGTATGT,-0.16

row,Sequence,relative binding free energy [kcal/mol]
1,TGGTGCACGTGGCGGG,-0.04
2,AAGTGCACGTGCTGTG,-0.04
3,CGTGACACGTGTTGTA,-0.05
4,GAAGACACGTGTGTTG,-0.14
5,TTTTTCACGTGTACTT,0.27
6,TTTAACACGTGGGGAT,-0.01
7,ATAGACACGTGAGGGA,0.23
8,GTGGCCACGTGCGTGA,-0.07
9,AAGTGCACGTGCCTGG,-0.12
10,GGAGGCACGTGACTGT,0.11
11,GGTTTCACGTGCCGGG,0.27
12,TTTCGCACGTGGGCTT,-0.21
13,TTGTTCACGTGCTGAA,0.12
14,TACGTCACGTGTTGCT,0.06
15,GAGTCCACGTGATGTG,0.23
16,GAAGGCACGTGATGCG,0
17,AATTGCACGTGTTGGT,0.11
18,ATGAACACGTGGAATG,0.11
19,TGTTTCACGTGGAGAT,0.19
20,TCGTGCACGTGCGAGT,-0.11
21,TGTGCCACGTGCGGGC,-0.11
22,TTTGTCACGTGTGTAT,0.17
23,GGTTGCACGTGGTCTT,-0.08

row,Sequence,relative binding free energy [kcal/mol]
1,AGGTTCACGTGAGTAT,0.41
2,TGAGTCACGTGGTTGT,0.13
3,AGTTTCACGTGAGGCG,0.31
4,AGAGTCACGTGGTGGC,0.08
5,ATGGGCACGTGAGGCA,0.07
6,ATTTACACGTGGCATG,0.06
7,GAGCACACGTGGTGTG,-0.1
8,ATTTGCACGTGGGACA,-0.09
9,AAAGTCACGTGAGGAT,0.27
10,TTTGTCACGTGCGGAG,0.1
11,TGGGCCACGTGTATGC,0.04
12,GTTGTCACGTGTCGTG,0.09
13,GTTTGCACGTGCTTTA,0
14,AAGGTCACGTGACGGT,0.27
15,GTGTGCACGTGAAGAA,0.15
16,GCGGTCACGTGAGGAT,0.33
17,CTTTGCACGTGGGGGT,-0.15
18,GATTGCACGTGGGTCT,-0.13
19,TGTTGCACGTGTAAAG,0.07
20,TGGGGCACGTGGCCGG,-0.26
21,TTTTTCACGTGGCTGA,0.16
22,TGGTGCACGTGCTAGG,-0.06
23,GAATGCACGTGAGAGT,0.22
